In all, about 33,000 sequences were measured (“E-score (-0.5 to 0.5)”: median about -0.056, highest 2% from about 0.38 on). The list shows a part of the results.

From the supplement of paper PMC3334620 come the findings set out here.

The target of this experiment is Stb4 (UniProt P50104). The experiment can be described thus: PBM E-score (8-mer binding enrichment) (E-score (-0.5 to 0.5)); higher = stronger / more preferred TF binding; most listed sequences are background and not binding sites. The note with it: protein concentration: 200 nM; construct: GST-DNA-binding domain. In short, it runs like this:
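Full-length yeast transcription factors or their DNA-binding domains, GST-tagged and expressed with PURExpress, were applied at about 100-200 nM to universal all-10-mer Agilent arrays. These arrays had been made double-stranded by primer extension on fresh or once-stripped slides. Detection used fluorescent anti-GST, normalisation used masliner, and E-scores for ungapped eight-base words pooled with reverse complements came from the Universal PBM Analysis Suite.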
As for AAAGATCC, the “PBM E-score” value was determined as 0.166.
For AGGTTCCG the value was 0.383.
For CTCTTTTA, the “PBM E-score” value was -0.283.
To TGCACAAA belongs -0.209; to AGCCATAC, -0.279; to CCCGGATC, 0.385.
Turning to CACTGCAC, the “PBM E-score” value was -0.177.
To AGTTCTTG belongs -0.0743; to AAGATCGT, -0.19.
For ATGGTAAA the value was 0.102; for CGGAATAA, 0.384.
To CTTTTTAC belongs 0.0351; to CGGTCTAG, -0.0679; to GGAGGGCA, -0.0606.
Consider CAATTTCA, for which the “PBM E-score” value is -0.179.
As to AAAATACG, the “PBM E-score” value is 0.0442.
To GACTCTAC belongs -0.197; to CAGTACTG, -0.158.
For ATGGATGC the value was -0.153; for ATTAACCG, 0.413.
TACTGGAA: the “PBM E-score” value is -0.0722.
To AAGGGGGG belongs -0.234; to ACTAGGGC, -0.201; to ATCCAAAG, -0.22.
To CGCCGCCG belongs 0.249; to CACAGCGC, -0.0634; to GTCCTAAC, -0.16.
Turning to CAATCGTA, the “PBM E-score” value is -0.191.
For ACTTCCCC the value was -0.111.
In the case of TTCGACAA, the “PBM E-score” value is -0.243.
With ACGTGCAT, the “PBM E-score” value is -0.301.
Regarding CTAGCACA, the “PBM E-score” value is -0.0883.
For CGAGTAAC the value was 0.166.
With CCCCAACG, the “PBM E-score” value is -0.229.
To GTGTATCA belongs 0.0958.
As to GGACCCTA, the “PBM E-score” value is -0.144.
To GCTGCGGA belongs 0.152; to CAGCACAC, -0.157.
To ACAACAAG belongs -0.196; to AAGTTAGG, 0.0911.
For ACTCCATC the value was 0.182; for AGTGTCAG, -0.286; for CTTAGGGA, -0.165.
Take ACTCGTCA: the “PBM E-score” value was -0.167.
To ATTTACAA belongs -0.0769; to TCCGTCAA, 0.25; to ATAACTTG, -0.227.
For the sequence AATTTCAG, the “PBM E-score” value was -0.327.
With AATAACCG, the “PBM E-score” value is 0.289.
As to CCTTGCCC, the “PBM E-score” value was -0.045.
Regarding AAAACTTA, the “PBM E-score” value is 0.114.
Consider AGCCAAGG, for which the “PBM E-score” value is -0.246.
For CTAGTCGC the value was -0.225; for CAGGAACA, -0.199.
Take CTAGACAA: the “PBM E-score” value was -0.104.
In the case of AACTAGCC, the “PBM E-score” value was -0.0172.
To GAAGCGGC belongs -0.00439; to GACGTGAA, -0.0204; to AGGGGGGC, -0.0911.
To ACGGCCCC belongs -0.209; to ACAGCAAG, -0.159.
On to CAACGTGA, for which the “PBM E-score” value was -0.18.
For ATGATGCG the value was -0.113.
Regarding CCGCGCCG, the “PBM E-score” value stood at 0.328.
To CCCGAGTC belongs 0.395; to CACACCAC, -0.0063.
To AATCCTTC belongs 0.00569.
With TACGTTCA, the “PBM E-score” value was -0.336.
AAACTGCG: the “PBM E-score” value was -0.144.
Turning to ATGCGCGG, the “PBM E-score” value is 0.219.
To GTTTGTTA belongs -0.0446; to ATGGCAGA, -0.0535; to ATTGATCG, 0.0261.
With TACATATA, the “PBM E-score” value was -0.00593.
Consider CCATCTTC, for which the “PBM E-score” value amounted to 0.00288.
For the sequence TCACAGGA, the “PBM E-score” value was -0.213.
For TGTTGTAA the value was -0.0379.
To AGACTAGA belongs -0.168.
To GGTCCGAA belongs 0.416; to ACACCAAC, -0.112; to GCGGAACC, 0.284.
As for ACGCTACA, the “PBM E-score” value is -0.107.
For ACCTAGAT the value was -0.0686; for CGTCCGTA, 0.0345; for CTTGTCCA, -0.0611.
Consider CAACAATC, for which the “PBM E-score” value is -0.121.
For CTTATTTA the value was -0.164; for TAGGCCGA, 0.184.
For GCACCGGA the value was 0.329.
For CCAATACC the value was 0.0344.
CTGTTTTA: the “PBM E-score” value came to 0.0688.
With CAACATGC, the “PBM E-score” value was -0.165.
To CGAGTGGA belongs 0.122; to AAAAGGTC, -0.0607.
